Measured values from the supplement of paper PMC3334620.
In all, about 33,000 sequences were measured (“E-score (-0.5 to 0.5)”: median about -0.012, highest 2% from about 0.29 on). The list shows a part of the results.

What follows are sequences tested against T1, Ybr033w (UniProt P38073) (assay: PBM E-score (8-mer binding enrichment) (E-score (-0.5 to 0.5)); higher = stronger / more preferred TF binding; most listed sequences are background and not binding sites). Conditions: protein concentration: 200 nM; construct: GST-full length.
T1 sequence: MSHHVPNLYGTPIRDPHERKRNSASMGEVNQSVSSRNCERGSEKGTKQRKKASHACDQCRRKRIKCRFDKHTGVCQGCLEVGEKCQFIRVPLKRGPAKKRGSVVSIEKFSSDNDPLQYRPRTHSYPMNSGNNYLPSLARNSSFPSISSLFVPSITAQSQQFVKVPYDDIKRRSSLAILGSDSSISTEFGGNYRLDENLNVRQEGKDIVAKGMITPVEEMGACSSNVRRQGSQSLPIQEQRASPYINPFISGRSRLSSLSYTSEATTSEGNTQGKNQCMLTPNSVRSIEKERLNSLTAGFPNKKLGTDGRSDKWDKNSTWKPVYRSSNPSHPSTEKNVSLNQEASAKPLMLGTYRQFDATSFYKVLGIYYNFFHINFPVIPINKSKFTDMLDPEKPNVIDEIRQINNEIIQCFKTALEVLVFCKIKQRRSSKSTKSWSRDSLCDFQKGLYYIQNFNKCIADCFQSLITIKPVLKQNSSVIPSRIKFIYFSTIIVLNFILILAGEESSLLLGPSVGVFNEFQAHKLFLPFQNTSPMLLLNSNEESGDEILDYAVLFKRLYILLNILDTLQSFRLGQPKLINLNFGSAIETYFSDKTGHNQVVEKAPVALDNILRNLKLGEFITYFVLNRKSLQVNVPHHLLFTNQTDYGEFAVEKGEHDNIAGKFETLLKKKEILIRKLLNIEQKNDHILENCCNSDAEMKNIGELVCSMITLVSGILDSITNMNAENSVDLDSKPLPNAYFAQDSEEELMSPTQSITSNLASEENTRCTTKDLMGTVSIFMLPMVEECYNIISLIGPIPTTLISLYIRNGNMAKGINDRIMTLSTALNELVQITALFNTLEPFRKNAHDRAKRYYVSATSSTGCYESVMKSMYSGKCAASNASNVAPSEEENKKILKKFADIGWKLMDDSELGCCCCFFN
Description: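 Universal 'all 10-mer' protein binding microarrays (Agilent AMADID 015681) probed with GST-tagged S. cerevisiae TFs (full-length or DBD) made by in vitro transcription/translation (PURExpress), about 100-200 nM. Bound TF was detected with fluorescent anti-GST. Each ungapped 8-mer (which stands for itself and its reverse complement) is scored by the PBM enrichment score (E-score), a modified Wilcoxon-Mann-Whitney statistic from -0.5 to +0.5, computed with the Universal PBM Analysis Suite. Scale: above 0.35 generally sequence-specific binding.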

Sequence | PBM E-score
CATCGGTA | -0.154
CTTAATCC | 0.152
GGGGTGAA | -0.00867
GCAGTCCC | -0.254
AGGACCCA | -0.303
GGCTACGA | -0.241
ACGCAGTC | -0.266
AATTGGAC | 0.16
CCATGCGC | -0.215
AATGTACA | 0.0635
CCTAGTAA | -0.0427
CATCATCC | 0.0323
GGTGCACC | -0.253
CAGAATCA | 0.0839
AACTATAG | 0.104
CTCGACCA | -0.162
GCCGAATA | 0.0333
GCACTTAA | 0.016
AAACGGAT | 0.188
ACCTGACT | 0.194
CTTTCAAA | 0.212
CCGTCTAC | 0.0942

Sequence | PBM E-score
ATTGCTCG | 0.132
CCGAGGCA | -0.128
CACGCCTC | -0.209
GAACTCGA | 0.00673
AGAAAAGA | 0.114
CACCAATG | 0.0245
AGAGTCGG | -0.126
TCTACGCA | -0.0005
GGATGTGA | -0.0116
GCAACCGA | 0.0135
AAAAATCT | 0.267
TCTAAGCA | -0.00029
AATAGTGG | 0.0387
GGAATTCC | -0.236
GAACCCGC | -0.242
AACGAGGA | -0.0379
CGGTCGGC | -0.299
AGAGTTAA | 0.0474
AACTTGCC | 0.0985
AACCCGTG | -0.329
CGAAGTTC | 0.0291
ATAACCAA | 0.195

Sequence | PBM E-score
CAAAATCC | 0.109
AAGTCACG | -0.107
ATAATCCC | 0.189
AGCCACAA | 0.0758
CCGATGGA | -0.136
GAAGACAC | -0.172
CGTTTAAA | 0.135
AATGCACG | 0.0215
AGTTTAGC | -0.121
CAGTTTAC | 0.0171
GACCTCGC | -0.156
AATAGCAA | 0.147
ATTTCGAG | 0.244
ATACGGAG | 0.00026
CGTAGTAG | 0.106
GCTTCTTA | 0.141
CGTAGCGC | -0.0964
GAATCGCA | -0.0364
ATGCGTTA | -0.00863
ATTGGTAG | 0.205
ATCCCGAC | 0.0724
AAAAGCAA | 0.22

Sequence | PBM E-score
GGTAAGTA | 0.0633
GCCGTAGA | 0.0238
ACCGATAC | 0.0669
ACAAGACA | 0.162
AGGGGCAG | -0.302
AGAATTAG | 0.187
GTTTGTCA | 0.0261
ATGCCTAC | -0.0813
CCTGACTA | 0.0513
TGAAGCAA | -0.108
ATAATCTC | 0.293
GGTCTTTA | 0.0871
ATGCGAAC | 0.0408
ATCGTTAG | 0.147
AATCGAGA | 0.0977
CATTTACG | 0.0866
CCGCGCTC | -0.164
AACCTGCT | -0.0354
CCATCACG | -0.0178
AGACTTGG | -0.0522
